Results: PubChem BioAssay (NCATS)
Several values for one entry are separate records, joined by “and”; a condition that tells them apart may be missing. Identical values can stand only once. Inconclusive results, whose numbers are uncertain, are shown with a selection of clear calls. For part of these data: Potencies beside an inconclusive call are fits to weak or partial responses and may not hold up. Activity calls are given as the source filed them. Unless noted, calls follow the shape of the dose curve; as a rule, active = well fitted curve in the direction sought with a large enough effect; inconclusive = small, poorly fitted or top-dose-only effect, or another doubt; inactive = no such curve, though single readings can be large; an effect the other way counts as inactive or inconclusive.

Assays:
[1] = Primary qHTS for small molecule stabilizers of the endoplasmic reticulum resident proteome: Secreted ER Calcium Modulated Protein (SERCaMP) assay (AID 1508630); conditions: SH-SY5Y GLuc-SERCaMP (Gaussia luciferase released on ER calcium loss) secretion, thapsigargin, luminescence; series mostly up to 38.4 µM; also: potency is read from the fitted curve at half-maximal effect
In short: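 GLuc-SERCaMP-expressing SH-SY5Y cells, pretreated 16 h with compound, are challenged with thapsigargin to empty ER calcium stores; after 4 h, coelenterazine is added directly to the medium and luminescence is imaged.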

[2] = biological target: Cytochrome P450 2C9 (Homo sapiens) (UniProt P11712); assay: Cytochrome P450 family 2 subfamily C member 9 (CYP2C9) small molecule antagonists: luciferase biochemical (cell-free) qHTS assay (AID 1645842; active = well fitted curve in the direction sought with a large enough effect in the repeat runs; inconclusive = weak or mixed curves; inactive = no such curve, though single readings can be large; an effect the other way counts as inactive or inconclusive; also: nearly all actives have a fitted effect of over 55% in size)
Chain of UniProt P11712 (P11712 whole entry, looked up): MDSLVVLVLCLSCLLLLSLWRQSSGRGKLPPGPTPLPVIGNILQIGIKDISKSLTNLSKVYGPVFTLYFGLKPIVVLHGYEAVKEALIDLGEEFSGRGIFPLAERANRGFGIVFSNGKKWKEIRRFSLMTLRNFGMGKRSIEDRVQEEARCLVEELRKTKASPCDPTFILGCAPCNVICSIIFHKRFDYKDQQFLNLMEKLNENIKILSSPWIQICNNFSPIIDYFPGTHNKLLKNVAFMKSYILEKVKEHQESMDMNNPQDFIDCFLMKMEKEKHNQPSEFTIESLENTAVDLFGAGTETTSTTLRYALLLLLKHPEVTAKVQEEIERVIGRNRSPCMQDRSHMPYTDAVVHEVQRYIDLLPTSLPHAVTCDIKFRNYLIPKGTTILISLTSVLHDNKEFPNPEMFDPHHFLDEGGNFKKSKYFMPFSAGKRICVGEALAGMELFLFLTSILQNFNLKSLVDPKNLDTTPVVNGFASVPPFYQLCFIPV
In short: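 Luminescence, after 20 min with luciferin detection reagent, reflected CYP2C9 turnover during a 1 h NADPH-driven reaction at 37C. Enzyme-substrate mix contained 0.4% bovine serum albumin and was preincubated with compound 10 min at room temperature.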

[3] = biological target: N-terminal Xaa-Pro-Lys N-methyltransferase 1 (Homo sapiens) (UniProt Q9BV86); assay: Confirmatory qHTS for Inhibitors of N-terminal methyltransferase 1 (NTMT1): MTaseGlo Assay (AID 1645874); also: nearly all actives have a fitted effect of over 65% in size; also: potency is read from the fitted curve at half-maximal effect
Chain of UniProt Q9BV86 (Q9BV86 whole entry, looked up): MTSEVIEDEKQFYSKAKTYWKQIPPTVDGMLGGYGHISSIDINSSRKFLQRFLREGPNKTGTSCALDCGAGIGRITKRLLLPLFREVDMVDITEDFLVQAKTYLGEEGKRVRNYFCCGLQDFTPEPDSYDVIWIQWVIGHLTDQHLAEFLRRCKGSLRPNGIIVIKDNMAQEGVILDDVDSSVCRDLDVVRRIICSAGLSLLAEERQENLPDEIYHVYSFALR
In short: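 Preincubation of NTMT1 (125 nM) plus SAM (100 uM) with test compounds lasted 15 min; methylation of 1 uM SPKRIA then proceeded 30 min in the dark at room temperature. Luciferase signal reported SAH produced.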

[4] = biological target: Cytochrome P450 2D6 (Homo sapiens) (UniProt P10635); assay: Cytochrome P450 family 2 subfamily D member 6 (CYP2D6) small molecule antagonists: luciferase biochemical (cell-free) qHTS assay (AID 1645840; active = well fitted curve in the direction sought with a large enough effect in the repeat runs; inconclusive = weak or mixed curves; inactive = no such curve, though single readings can be large; an effect the other way counts as inactive or inconclusive; also: potency is read from the fitted curve at half-maximal effect; nearly all actives have a fitted effect of over 55% in size)
Chain of UniProt P10635 (P10635 whole entry, looked up): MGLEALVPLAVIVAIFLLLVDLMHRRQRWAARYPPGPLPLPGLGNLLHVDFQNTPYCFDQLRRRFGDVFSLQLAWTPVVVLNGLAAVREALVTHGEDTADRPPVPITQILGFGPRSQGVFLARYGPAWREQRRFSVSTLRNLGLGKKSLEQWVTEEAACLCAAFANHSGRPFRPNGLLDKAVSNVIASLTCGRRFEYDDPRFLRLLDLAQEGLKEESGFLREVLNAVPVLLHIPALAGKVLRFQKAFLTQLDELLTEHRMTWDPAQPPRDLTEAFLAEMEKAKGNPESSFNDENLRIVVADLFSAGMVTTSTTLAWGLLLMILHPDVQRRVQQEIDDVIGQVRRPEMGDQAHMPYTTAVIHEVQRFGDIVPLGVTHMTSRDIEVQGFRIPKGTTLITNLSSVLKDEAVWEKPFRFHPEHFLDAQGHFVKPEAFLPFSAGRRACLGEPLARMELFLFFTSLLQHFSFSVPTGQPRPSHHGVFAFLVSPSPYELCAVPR
In short: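 P450-Glo luminescent screen: recombinant CYP2D6 enzyme–proluciferin substrate mix preincubated with compound 10 min at room temperature, then NADPH regeneration added for 1 h at room temperature. Detection reagent added for 20 min; luciferin light read as relative luminescence units.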

[5] = biological target: Cytochrome P450 3A4 (Homo sapiens) (UniProt P08684); assay: Cytochrome P450 family 3 subfamily A member 4 (CYP3A4) small molecule antagonists: luciferase qHTS assay (AID 1645841; active = well fitted curve in the direction sought with a large enough effect in the repeat runs; inconclusive = weak or mixed curves; inactive = no such curve, though single readings can be large; an effect the other way counts as inactive or inconclusive; also: nearly all actives have a fitted effect of over 45% in size)
Chain of UniProt P08684 (P08684 whole entry, looked up): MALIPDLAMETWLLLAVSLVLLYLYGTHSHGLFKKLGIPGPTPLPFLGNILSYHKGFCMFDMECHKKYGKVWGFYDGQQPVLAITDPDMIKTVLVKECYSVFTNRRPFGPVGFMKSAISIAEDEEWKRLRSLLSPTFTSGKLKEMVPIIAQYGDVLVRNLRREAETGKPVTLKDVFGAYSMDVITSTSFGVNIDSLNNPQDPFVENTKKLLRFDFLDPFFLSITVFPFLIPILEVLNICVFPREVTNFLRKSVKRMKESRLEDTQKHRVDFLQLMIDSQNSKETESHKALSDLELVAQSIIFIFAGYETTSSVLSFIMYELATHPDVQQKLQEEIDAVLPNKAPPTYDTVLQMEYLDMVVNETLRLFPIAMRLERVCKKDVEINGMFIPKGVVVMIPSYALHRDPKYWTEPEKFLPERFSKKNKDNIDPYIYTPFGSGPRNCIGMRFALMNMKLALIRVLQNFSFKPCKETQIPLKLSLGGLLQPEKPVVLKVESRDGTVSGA
In short: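 P450-Glo CYP3A4 enzyme with proluciferin substrate preincubated 10 min with compound at room temperature, then NADPH regeneration 1 h. Luciferin detection reagent added for 20 min; luminescence recorded. Ketoconazole positive control.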

[6] = biological target: Papain (Carica papaya) (UniProt P00784); assay: Primary qHTS assay for inhibitors of the protease papain (AID 1645873);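 also: papain turnover of Z-FR-AMC read as the AMC fluorescence gain over 10 min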; also: potency is read from the fitted curve at half-maximal effect
Chain of UniProt P00784 (P00784 whole entry, looked up): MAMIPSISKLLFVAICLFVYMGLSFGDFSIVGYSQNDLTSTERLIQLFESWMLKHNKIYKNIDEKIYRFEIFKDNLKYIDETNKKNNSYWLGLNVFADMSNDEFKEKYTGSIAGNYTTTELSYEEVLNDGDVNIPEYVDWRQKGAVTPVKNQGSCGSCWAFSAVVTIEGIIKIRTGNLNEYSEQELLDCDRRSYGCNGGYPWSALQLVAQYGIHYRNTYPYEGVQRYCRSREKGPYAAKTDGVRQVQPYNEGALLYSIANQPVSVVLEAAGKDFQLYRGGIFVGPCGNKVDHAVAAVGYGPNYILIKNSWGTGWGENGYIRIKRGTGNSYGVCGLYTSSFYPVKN
Tags tell the direction and shape of the fitted curve.

In the case of `CCC1(C)CC(=O)NC1=O` (configuration not stated), the Potency [1] is reported as inconclusive: 4.47 µM [inhibitor, full curve, poor fit], the Potency [2] is reported as “inactive” and the Potency [3] is reported as “inactive”.
In the case of `NC(N)=NC(=O)c1nc(Cl)c(N)nc1N`, the Potency [1] is reported as inconclusive: 10 µM [inhibitor, partial curve, poor fit].
With `CCN1CCCC1CNC(=O)c1cc(S(=O)(=O)CC)c(N)cc1OC` (configuration not stated) the Potency [1] was “inactive”, the Potency [4] was inconclusive: 12.3 µM [inhibitor, partial curve] and the Potency [5] was “inactive”. For the same compound, the Potency [6] was “inactive”.
For `CC[C@H](C)C(=O)O[C@H]1C[C@@H](C)C=C2C=C[C@H](C)[C@H](CC[C@@H]3C[C@@H](O)CC(=O)O3)[C@H]21`, the Potency [1] was “inactive and inconclusive: 11.9 µM [inhibitor, single point]” and the Potency [4] was inconclusive: 38.9 µM [inhibitor, single point].
For `COc1cc2nc(N(C)CCCNC(=O)C3CCCO3)nc(N)c2cc1OC` (configuration not stated), the Potency [6] was active: 22.4 µM.
In the case of `COc1ccc(-c2ccc3ncc4c(c3c2)n(-c2ccc(N3CCNCC3)c(C(F)(F)F)c2)c(=O)n4C)cn1`, the Potency [3] is reported as inconclusive: 7.08 µM [inhibitor, full curve].
